How the values were obtained:
[1] = test system: U937 cells; experiment: Counter screen: cell viability of U937 cells treated with compound without the TSQ cocktail (off-target effect); conditions: Homo sapiens, U-937, compound in DMSO without the TSQ cocktail, cell viability by CelltiterGlo, read-out: Off-target effect (IC50 cell-based assay)
Method: (§1) Cell Line ID: U937 human histiocytic leukemia cell line.
(§2) The cellular assay was carried out according to the following steps: • 1. Each well was prepared by sequential addition of: • a. DMSO (control; columns 1-2 and 23-24) or compound in DMSO—addition was performed using acoustic transfer of nl volumes of stock compound to give final test concentrations of 36, 12, 4, 1.3, 0.44, 0.148, 0.049, 0.016, 0.005 and 0.002 μM. All wells were backfilled with DMSO to a final total volume in the well of 100 nl. • b. Following compound/DMSO addition in step (a), 40 μL of cell suspension (5×10^5 cells/mL) was added to provide a final cell concentration of 20,000 cells per well, and • c. Following cell addition in step (b), 10 μL of 5×TSQ cocktail (except to positive controls; […]) was added to each well. • 2. After 48 hours, plate was removed from the 37° C. incubator and equilibrated to room temperature for 45 minutes. • 3. 15 μL of room temperature CellTitre-Glo2™ (Promega™) was added to each well. • 4. Shook plates for 2 minutes (˜600 rpm) and incubated at room temperature for 15 minutes to allow signal to stabilise. • 5. Read luminescence readout on a plate reader.
(§3) Curve fitting: 10-point titration curves are fitted with the 4-parameter logistic nonlinear regression model and the IC50 reported is the inflection point of the curve
Counter screen: In parallel, all compounds were tested for their ability to affect cell viability. The same U937 cells were treated with compound in DMSO without the TSQ cocktail. This counter screen enabled evaluation of off-target effects. In this case, cell viability was measured by CelltiterGlo.

[2] = molecular target: T1, MLKL (full length) (Homo sapiens, UniProt Q8NB16); experiment: KINOMEscan binding affinity assay, MLKL; conditions: equilibrium dissociation constant
T1 construct: purchased DiscoverX (KINOMEscan service); host or cells: E. coli BL21-derived host (T7 phage) or HEK-293
T1 sequence (Q8NB16 1-471): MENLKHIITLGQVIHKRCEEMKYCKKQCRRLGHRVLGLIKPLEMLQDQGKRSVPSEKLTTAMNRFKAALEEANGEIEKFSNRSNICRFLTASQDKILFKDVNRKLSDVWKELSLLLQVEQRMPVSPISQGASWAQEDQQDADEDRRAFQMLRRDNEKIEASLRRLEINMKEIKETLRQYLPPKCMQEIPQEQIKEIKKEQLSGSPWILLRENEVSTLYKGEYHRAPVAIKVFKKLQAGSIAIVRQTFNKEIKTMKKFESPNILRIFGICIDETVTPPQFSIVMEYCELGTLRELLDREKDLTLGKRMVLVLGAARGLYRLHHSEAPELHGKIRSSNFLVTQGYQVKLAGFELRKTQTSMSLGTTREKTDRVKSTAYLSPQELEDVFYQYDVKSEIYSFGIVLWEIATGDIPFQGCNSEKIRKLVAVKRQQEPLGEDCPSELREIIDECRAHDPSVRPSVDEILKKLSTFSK
Text: (§4) The Hill Slope was set to −1.

[3] = molecular target: T2, RIP3 (Homo sapiens, UniProt Q9Y572); experiment: KINOMEscan binding affinity assay, RIP3; conditions: equilibrium dissociation constant
T2 construct: purchased DiscoverX (KINOMEscan service); host or cells: E. coli BL21-derived host (T7 phage) or HEK-293
T2 sequence (Q9Y572 whole entry): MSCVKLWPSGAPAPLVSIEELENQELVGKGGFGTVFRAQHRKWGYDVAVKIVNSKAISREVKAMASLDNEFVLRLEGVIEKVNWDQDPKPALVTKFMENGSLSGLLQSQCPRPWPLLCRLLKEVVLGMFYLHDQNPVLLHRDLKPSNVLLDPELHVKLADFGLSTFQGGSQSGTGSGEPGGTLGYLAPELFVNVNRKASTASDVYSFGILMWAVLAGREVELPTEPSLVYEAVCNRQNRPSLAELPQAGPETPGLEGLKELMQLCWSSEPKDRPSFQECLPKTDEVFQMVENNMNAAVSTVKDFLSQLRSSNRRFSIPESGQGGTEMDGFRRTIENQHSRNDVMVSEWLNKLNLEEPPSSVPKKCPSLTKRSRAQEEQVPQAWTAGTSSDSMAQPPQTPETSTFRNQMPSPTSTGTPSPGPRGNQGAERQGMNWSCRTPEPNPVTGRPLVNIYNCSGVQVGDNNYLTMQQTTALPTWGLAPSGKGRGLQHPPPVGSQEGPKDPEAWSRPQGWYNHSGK
Text: as §4

[4] = molecular target: T3, RIP1 (Homo sapiens, UniProt Q13546); experiment: KINOMEscan binding affinity assay, RIP1; conditions: equilibrium dissociation constant
T3 construct: purchased DiscoverX (KINOMEscan service); host or cells: E. coli BL21-derived host (T7 phage) or HEK-293
T3 sequence (Q13546 1-671): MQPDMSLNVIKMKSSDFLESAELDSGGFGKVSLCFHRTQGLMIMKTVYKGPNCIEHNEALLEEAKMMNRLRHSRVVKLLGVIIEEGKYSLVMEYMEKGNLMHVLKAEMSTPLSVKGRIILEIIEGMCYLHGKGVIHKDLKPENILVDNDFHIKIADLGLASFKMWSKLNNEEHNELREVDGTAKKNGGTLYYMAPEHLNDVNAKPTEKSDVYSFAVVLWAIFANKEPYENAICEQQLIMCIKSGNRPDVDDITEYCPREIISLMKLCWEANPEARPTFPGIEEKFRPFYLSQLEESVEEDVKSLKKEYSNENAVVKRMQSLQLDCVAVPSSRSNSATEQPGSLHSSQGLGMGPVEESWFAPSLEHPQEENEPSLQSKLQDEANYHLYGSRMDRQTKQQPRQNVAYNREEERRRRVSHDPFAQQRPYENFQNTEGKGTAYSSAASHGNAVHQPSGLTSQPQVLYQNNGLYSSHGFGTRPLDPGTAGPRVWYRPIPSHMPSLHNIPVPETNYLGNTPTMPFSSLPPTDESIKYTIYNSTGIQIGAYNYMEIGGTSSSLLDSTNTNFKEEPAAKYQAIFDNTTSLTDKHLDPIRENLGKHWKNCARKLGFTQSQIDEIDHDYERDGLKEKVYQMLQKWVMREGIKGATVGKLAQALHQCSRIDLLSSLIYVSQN
Text: as §4

[5] = test system: U937 human histiocytic leukemia cell line; experiment: Cellular assay: inhibition of TSQ induced necroptosis, 384 well plate format; conditions: U-937, U937 cells, TSQ cocktail (TNF, Smac mimetic, Q-VD-OPh), 48 hours, CellTitre-Glo, read-out: Inhibition of TSQ-induced necroptosis (IC50 cell-based assay)
Method: Cellular Assay: Screening Compounds for Inhibition of TSQ Induced Necroptosis, 384 Well Plate Format.
as §1
Cell Concentration (cells/well): Final cell density is 20000 cells per well.
Cell growth medium: HT-RPMI medium+7.4% Fetal Bovine Serum (FBS). Cells are cultured in Corning 150 cm^2 tissue culture flasks with vented caps at 37° C./5% CO2.
Incubation: Plates were incubated at 37° C./5% CO2 in a humidified incubator for 48 hours following addition of compounds and death stimuli (TSQ cocktail).
Compound concentration: 36 μM starting concentration, 1:3 dilution, 10 point
DMSO final concentration (% v/v): 0.3%.
Compounds in TSQ cocktail (T: TNF; S: Smac mimetic; Q: Q-VD-OPh) and their final concentrations:
hTNF-Fc (100 ng/ml)—produced by standard procedures as shown in Bossen et al., J Biol Chem, 2006, 281(20), 13964-13971.
Compound A (500 nM)—Smac mimetic, Tetralogic and SYNthesis med chem Q-VD-OPh (10 μM)—MP Biomedicals
as §2
Percent viability was calculated for each compound according to equation (2):
% viability=100×((RawData−NSA)/(TA−NSA) (2)
wherein RawData is the readout of any cell containing a compound of the invention TA is the total activity provided by the luminescence readout from DMSO only wells (columns 2 and 24)=100% viability NSA is the non-specific activity provided by DMSO+TSQ wells (columns 1 and 23)=0% viability
as §3
Analysis: Data was loaded into Dotmatics™ and visualised using the Tibco® Spotfire™ software. points titration curve were fitted with the 4 parameter logistic nonlinear regression model and the IC50 reported reflect the inflection point of the curve for curve fitting.
Assay involving the TSQ cocktail (T: TNF; S: Smac mimetic; Q: Q-VD-OPh): TSQ treatment ensures that cells specifically undergo necroptotic cell death. TNF activates the TNF receptor, Smac mimetic directs the signal away from proinflammatory signaling and toward the RIP1/RIP3-mediated cell death pathways, and Q-VD-OPh ensures that the apoptotic response is blocked leaving only the programmed necrosis response. The compounds' activity (solution in DMSO) tested in this TSQ-induced assay was evaluated by determining the number of viable cells in culture by measuring the amount of ATP present as measured by CelltiterGlo.

SMILES | IC50 [1] [nM] | Kd [2] [nM] | Kd [3] [nM] | Kd [4] [nM] | IC50 [5] [nM]
NC(=O)c1c(-c2ccc(NC(=O)N3CCCC(c4ccc(F)c(F)c4)C3)cc2)n[nH]c1Nc1cccc(C(F)(F)F)n1 (stereo not drawn) [Compound 83, N-(4-(4-carbamoyl-5-((6-(trifluoromethyl)pyridin-2-yl)amino)-1H-pyrazol-3-yl)phenyl)-3-(3,4-difluorophenyl)piperidine-1-carboxamide] | > 1000 | 100 to 1000 | > 1000 | < 100 | < 100
NC(=O)c1c(-c2ccc(NC(=O)N3CCCC(c4ccc(C(F)(F)F)cc4)C3)cc2)n[nH]c1Nc1cnccn1 (stereo not drawn) [Compound 93, N-(4-(4-carbamoyl-5-(pyrazin-2-ylamino)-1H-pyrazol-3-yl)phenyl)-3-(4-(trifluoromethyl)phenyl)piperidine-1-carboxamide] | > 1000 | 100 to 1000 | > 1000 | 100 to 1000 | 100 to 1000
NC(=O)c1c(-c2ccc(NC(=O)N3CCCC(c4cccc(Cl)c4)C3)cc2)n[nH]c1Nc1cnccn1 (stereo not drawn) [Compound 96, N-(4-(4-carbamoyl-5-(pyrazin-2-ylamino)-1H-pyrazol-3-yl)phenyl)-3-(3-chlorophenyl)piperidine-1-carboxamide] | > 1000 | < 100 | > 1000 | < 100 | 100 to 1000

Source: patent publication US20230227428A1 (Anaxis Pharma Pty Ltd, priority 2020, published 2023)
